We go through 115 sequences from the BET-seq Pho4 binding data (Le et al. 2018).

This is one part of the list. The energies were worked out here from pooled read counts, against the library average; single values are noisy.

This experiment has as its target T1, Pho4 (S. cerevisiae) (UniProt P07270).
T1 sequence: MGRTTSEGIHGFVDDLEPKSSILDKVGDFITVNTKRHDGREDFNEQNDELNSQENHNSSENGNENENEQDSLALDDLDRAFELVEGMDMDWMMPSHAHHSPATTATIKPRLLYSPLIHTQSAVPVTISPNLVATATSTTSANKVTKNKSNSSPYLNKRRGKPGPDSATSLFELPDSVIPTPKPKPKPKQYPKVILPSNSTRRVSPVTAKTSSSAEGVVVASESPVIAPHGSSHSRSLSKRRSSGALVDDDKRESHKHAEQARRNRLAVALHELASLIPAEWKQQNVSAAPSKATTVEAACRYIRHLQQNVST
Put plainly: relative binding free energy (BET-seq); higher = weaker binding. The note with it: reference: library average.
For the sequence TAAAGCACGTGGTAAA, the “relative binding free energy” value was 0.05 kcal/mol. The result for AATTTCACGTGAATTG reads 0.29 kcal/mol; that for GTGCTCACGTGGAGGT, 0.17 kcal/mol; that for TAGTACACGTGGAGGA, 0.12 kcal/mol. The result for TAGGTCACGTGGTATA reads 0.12 kcal/mol; that for TTCTTCACGTGGCATT, 0.24 kcal/mol. For TTGATCACGTGAAGCT the value was 0.32 kcal/mol. Consider AATGGCACGTGTGCAG, for which the “relative binding free energy” value was -0.12 kcal/mol. The result for GGGGTCACGTGATAGG reads 0.24 kcal/mol; that for TGTGGCACGTGTCCGT, -0.06 kcal/mol; that for TTATTCACGTGGTGCC, 0.27 kcal/mol. The result for GGCGGCACGTGATGGG reads 0.03 kcal/mol; that for AGGGTCACGTGGTATC, 0.11 kcal/mol; that for AGAGGCACGTGGTGTC, -0.11 kcal/mol. Take TGAGGCACGTGCTATA: the “relative binding free energy” value is -0.16 kcal/mol. For AGGTACACGTGCAGTT the value was 0.06 kcal/mol; for GGTATCACGTGTGAGT, 0.32 kcal/mol; for GAAAGCACGTGTGCGT, 0.06 kcal/mol. Take TTCTACACGTGGTTGT: the “relative binding free energy” value worked out at 0.12 kcal/mol. For GGGGTCACGTGATGAT the value was 0.21 kcal/mol; for CGGTGCACGTGGGCTA, -0.07 kcal/mol; for TGGGCCACGTGAGTTT, 0.23 kcal/mol. The result for TTTATCACGTGCGCGG reads -0.04 kcal/mol. Consider TATTGCACGTGATATT, for which the “relative binding free energy” value stood at 0.2 kcal/mol. The result for GTGCGCACGTGGTTAT reads -0.09 kcal/mol. For TTGTACACGTGGAGTG the value was 0.08 kcal/mol; for CGGAACACGTGTTGTG, -0.05 kcal/mol; for TTGGACACGTGGTTTG, 0.05 kcal/mol.

As for TGAGTCACGTGAAATG, the “relative binding free energy” value worked out at 0.25 kcal/mol.

As to TTCAACACGTGAGTGT, the “relative binding free energy” value came out at 0.2 kcal/mol.

Regarding TATGGCACGTGTTGGG, the “relative binding free energy” value was -0.01 kcal/mol.

On to AGGAGCACGTGGTAAG, for which the “relative binding free energy” value was -0.21 kcal/mol. The result for GCGTTCACGTGTTGTT reads 0.41 kcal/mol; that for TTTTACACGTGAGTAC, 0.31 kcal/mol. The result for CTATGCACGTGGGGCT reads -0.14 kcal/mol; that for ATGTACACGTGGGTGC, -0.11 kcal/mol. For TGTATCACGTGACTGT the value was 0.24 kcal/mol; for AGTATCACGTGGCGTA, -0.1 kcal/mol; for TTATTCACGTGTTATA, 0.09 kcal/mol.

On to GTTTACACGTGGATGC, for which the “relative binding free energy” value was 0.21 kcal/mol.

Turning to CCGGACACGTGGTGGG, the “relative binding free energy” value worked out at 0.01 kcal/mol.

Take ATTCTCACGTGGGGCT: the “relative binding free energy” value was found to be 0.06 kcal/mol. As to ATAGTCACGTGACTGT, the “relative binding free energy” value amounted to 0.15 kcal/mol.

Turning to TTTGGCACGTGAGAAG, the “relative binding free energy” value was determined as 0.16 kcal/mol. The result for GTATTCACGTGCAGGG reads 0.32 kcal/mol; that for GTGTTCACGTGTCCTT, 0.24 kcal/mol. For CGGGCCACGTGAAAGG the value was 0.24 kcal/mol; for GAGGGCACGTGAAGTG, 0.2 kcal/mol. Consider GAGAGCACGTGCTTTG, for which the “relative binding free energy” value was -0.02 kcal/mol. The result for GGGCTCACGTGTTTGA reads 0.31 kcal/mol; that for ATTTACACGTGGTACG, 0.12 kcal/mol; that for TATCTCACGTGGAAGG, 0.28 kcal/mol. Regarding GGTTTCACGTGCGCTT, the “relative binding free energy” value came to 0.34 kcal/mol. As to GTAGGCACGTGAATAG, the “relative binding free energy” value was 0.13 kcal/mol. As for CTTATCACGTGTTTAT, the “relative binding free energy” value came out at 0.04 kcal/mol. For AGGTGCACGTGTGATG the value was 0.02 kcal/mol. For AGAGTCACGTGATGAG the value was 0.25 kcal/mol; for TCTGTCACGTGATTTA, 0.19 kcal/mol. For the sequence TGTGTCACGTGCGTAT, the “relative binding free energy” value was 0.01 kcal/mol.

With CCTTGCACGTGTGTTT, the “relative binding free energy” value was -0.09 kcal/mol.

Consider TATAACACGTGAAAGG, for which the “relative binding free energy” value is 0.37 kcal/mol. For AGGTACACGTGTATCG the value was 0.02 kcal/mol. On to CGGATCACGTGGGTAT, for which the “relative binding free energy” value was -0.1 kcal/mol. For GTGTACACGTGGTTGT the value was 0.06 kcal/mol. The result for TTTTTCACGTGGCATA reads 0.14 kcal/mol; that for TTTAACACGTGATGTG, 0.06 kcal/mol.

For TGGGCCACGTGTGATG, the “relative binding free energy” value was 0.06 kcal/mol.

As for TTTATCACGTGTCTAG, the “relative binding free energy” value worked out at 0.1 kcal/mol.

GTGAACACGTGGTGCG: the “relative binding free energy” value came out at 0.05 kcal/mol. The result for GTGTACACGTGAAAGT reads 0.26 kcal/mol; that for TTGGACACGTGTGTGC, 0.1 kcal/mol. For TATATCACGTGAAGAG the value was 0.35 kcal/mol. The result for TGGCCCACGTGGGGGG reads -0.3 kcal/mol; that for GGAGTCACGTGAGATA, 0.32 kcal/mol. As for TGGCCCACGTGTGTGG, the “relative binding free energy” value is -0.21 kcal/mol. The result for TGAGGCACGTGCGATA reads -0.09 kcal/mol; that for GGGGGCACGTGCGAAG, -0.09 kcal/mol; that for GTGGTCACGTGCTGCA, 0.1 kcal/mol.

For CTTTTCACGTGGTAGT, the “relative binding free energy” value amounted to 0.21 kcal/mol.

For CGCTGCACGTGTTGGG, the “relative binding free energy” value was 0.06 kcal/mol. The result for TTCAGCACGTGATAAT reads 0.18 kcal/mol. For the sequence TGGGTCACGTGGGCGG, the “relative binding free energy” value worked out at 0.01 kcal/mol.

As for AAATTCACGTGTATGA, the “relative binding free energy” value came to 0.25 kcal/mol. For TGCGACACGTGAGGGC the value was 0.3 kcal/mol; for ATGATCACGTGAGGAT, 0.3 kcal/mol.

TCTATCACGTGAGTGT: the “relative binding free energy” value was determined as 0.37 kcal/mol. The result for ACTGACACGTGATTGT reads 0.26 kcal/mol; that for TTAAACACGTGAGTGT, 0.26 kcal/mol.

Take AGTGACACGTGAGAGA: the “relative binding free energy” value worked out at 0.26 kcal/mol. Turning to AAATTCACGTGGCTGT, the “relative binding free energy” value was found to be 0.18 kcal/mol. Turning to TTATTCACGTGATAAT, the “relative binding free energy” value turned out to be 0.18 kcal/mol.

With AGGGGCACGTGTTAGC, the “relative binding free energy” value was -0.08 kcal/mol.

With TGTAGCACGTGTCGTT, the “relative binding free energy” value is -0.11 kcal/mol. The result for TGCAGCACGTGGGCGA reads -0.25 kcal/mol; that for ATTGGCACGTGGGTAT, -0.22 kcal/mol; that for TAAAGCACGTGGGTAT, -0.18 kcal/mol. As to TGGTTCACGTGTGGCG, the “relative binding free energy” value is 0.26 kcal/mol. For TTTAACACGTGATAGA the value was 0.09 kcal/mol. For TGGGCCACGTGAAGTG the value was 0.19 kcal/mol; for TTGGTCACGTGGTGAA, 0.04 kcal/mol. The result for ATAATCACGTGATGGC reads 0.2 kcal/mol; that for GGCCACACGTGGTGAG, 0.16 kcal/mol; that for GATGTCACGTGGGGTC, 0.1 kcal/mol. As for CTGGGCACGTGAGGTA, the “relative binding free energy” value amounted to 0.18 kcal/mol. For CAGAGCACGTGGTTAT the value was -0.12 kcal/mol; for GTGTTCACGTGAGTCT, 0.43 kcal/mol; for CGGGGCACGTGGTTGT, -0.22 kcal/mol. For TGTGACACGTGTGGGC the value was 0.07 kcal/mol; for TAGGGCACGTGATGTC, 0.06 kcal/mol; for TGGTTCACGTGTTGTA, 0.27 kcal/mol. The result for TGTGGCACGTGTAGAT reads 0.14 kcal/mol.

Regarding GGTGACACGTGTGAAG, the “relative binding free energy” value turned out to be 0.17 kcal/mol. The result for AGCGACACGTGGTGTG reads -0.06 kcal/mol. The result for TGTGCCACGTGTTGAG reads -0.08 kcal/mol; that for CGGGGCACGTGAGCGG, 0.02 kcal/mol.
